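Exposure lasted 48 hours, with cells grown in 96-well plates and compounds tested at five concentrations. At the GI50, growth is halved. TGI denotes the concentration required for complete inhibition of growth.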
System: NCI-H322M lung
Assay: NCI tumour cell line growth inhibition, 48 h

Compound	GI50 [µM]	TGI [µM]
CCCCCCCC(=O)OCC/C=C/C1OC1C1OC(=O)/C=C\C=C\c2nc(oc2C)/C=C(/C)CCC2OC2C1OC(=O)NC(C)=O (stereo unspecified)	0.0509	4.31
O=C1Nc2ccccc2C1(c1ccc(O)cc1)c1ccc(O)cc1	0.865	70.8
O=C1c2[nH]c3ccc(Br)cc3c2CCN1Cc1ccc(Cl)cc1		30.5
CC1(C)C2CCC(CN)(C2)C1N (stereo unspecified)		> 100
CN(CCC(=O)O)C1=Nc2ccc(Cl)cc2C(c2ccccc2)=[N+]([O-])C1		> 100
C[C@@H]1OC(=O)N2CCCC(=C3SCCCS3)C12 (stereo partly specified)		> 100
CCOC(=S)SSSC(=S)OCC		> 100
CCC(C)(C)C1CCC2c3c([nH]c4ccccc34)C3C(=O)N(c4ccc(OC)cc4)C(=O)C3C2C1 (stereo unspecified)		> 100
Cc1ccc([N+](=O)[O-])cc1S(=O)(=O)Nc1ccc(C2=NN(c3ccc([N+](=O)[O-])cc3[N+](=O)[O-])C(c3cccs3)C2)cc1 (stereo unspecified)		83.8
CC(CCC(=O)O)(c1ccc(O)cc1)c1ccc(O)cc1		> 100
O=C(O)/C=C(\c1nc2ccc([N+](=O)[O-])cc2[nH]1)c1cc(Cl)ccc1O	2.8	> 100
C[N+](C)(C)CCCSc1nc2ccccc2[nH]1		> 100
[Cl-].[Rh+3].c1cnc2c(c1)ccc1cccnc12.c1cnc2c(c1)ccc1cccnc12.c1cnc2c(c1)ccc1cccnc12		> 100
COC(=O)CC(c1cn(S(=O)(=O)c2ccc(C)cc2)c2ccccc12)C1C[C@@H](C(=O)OC)N(C(=O)OC(C)(C)C)C1=O (stereo partly specified)		> 100
O/N=C/c1ncccc1C1OCCO1		> 100
COc1cc2ncn(-c3cc(OCc4cccs4)c(C(N)=O)s3)c2cc1OC	3.67	> 25
O=C1c2ccccc2C(=O)c2c1cc(S(=O)(=O)O)c(O)c2O		> 100
